Laboratory results reported in ChEMBL document CHEMBL4888484, “Replenishing the malaria drug discovery pipeline: Screening and hit evaluation of the MMV Hit Generation Library 1 (HGL1) against asexual blood stage Plasmodium falciparum ,using a nano luciferase reporter read-out” (2022).
In all, about 150,000 compounds went through this assay and about 540 (0.36%) showed an effect of 50% or more. The list shows a part of the results.

Tested on: Plasmodium falciparum
Assay: Primary screen in NF54 nanoGlo assay, in single point, at 2uM, 72h; a lower Z score goes with more inhibition
Format: functional, Erythrocyte
Conditions: timepoint 72 hour

| Structure (SMILES) | % Inhibition [%] | Z score |
| --- | --- | --- |
| NC(=NCc1ccc(Cl)cn1)N1CCN(c2nccs2)CC1 | -4 | 0.42 |
| Cc1ccc(NC(=O)c2cc(N3CC(C)OC(C)C3)ccn2)cn1 (stereo not drawn) | 0 | 0.03 |
| N#Cc1cc(Cl)ccc1CN1C(=O)CC2(CCC2)C1=O | -8 | 0.71 |
| CS(=O)(=O)C1(c2nc(C3CCCCC3)no2)CCCC1 | -10 | 1.28 |
| Nc1nc2c(s1)CCN(Cc1ccccc1)C2 | -9 | 1.29 |
| O=S(=O)(N[C@H]1CCc2nnc(-c3ccc(F)cc3)n2C1)N1CCCCC1 | 34 | -0.62 |
| COCCN1CCN(CC2=Nc3ccccc3S(=O)(=O)N2)CC1 | -10 | 1.96 |
| CC(C(=O)Nc1nccs1)N1CCOC(c2nccs2)C1 (stereo not drawn) | -8 | 0.96 |
| CC(C)n1cnnc1CC1CN(C(=O)Nc2ccc(Cl)cc2C(F)(F)F)C1 | 1 | -0.12 |
| CCn1nc(C(=O)N2C[C@@H]3CC[C@H]2CN(Cc2[nH]cnc2C)C3)cc1C | -6 | 0.59 |
| O=C(C1CCOCC1)N1CC[C@H](C2CCCCC2)C1 | -9 | 0.98 |
| O[C@@H]1COCCN(c2nc3ccc(Cl)cc3s2)C1 | -7 | 0.74 |
| CC(=O)N1CCc2cc(S(=O)(=O)N3CCCc4cc(F)cc(C)c43)ccc21 | -5 | 0.76 |
| CCOc1ccccc1CN1CCn2nc(CN3C[C@H]4CCC[C@@H]3C4)cc2C1 | -8 | 0.98 |
| CC(C)N(C1CC1)S(=O)(=O)CCC(C)(C)C#N | -25 | 2.98 |
| CC1(C#N)CN(S(=O)(=O)c2cccc(N)c2)C1 | 8 | -1.01 |
| Cc1sc(NC(=O)C(c2ccccc2)c2ccccc2)nc1-c1ccccc1 | -8 | 1.01 |
| COc1ccc([C@H](C(N)=O)c2cnnc3cc(OC)c(OC)cc23)cc1OC | -2 | 0.21 |
| Cc1nc(-c2nnc[nH]2)sc1C(=O)Nc1nnc(C(C)C)s1 | 2 | -0.27 |
| O[C@H]1C[C@@H]2CN(c3noc(-c4ccccc4)n3)C[C@@H]2C[C@@H]1O | 2 | -0.43 |
| C[C@@H]1Oc2ccc(NC(=O)c3ccc(F)cc3F)cc2CN(CCc2ccc(F)cc2)C1=O | -14 | 1.6 |

| Structure (SMILES) | % Inhibition [%] | Z score |
| --- | --- | --- |
| COCCN1C(=O)CC[C@@H](C(=O)N(C)Cc2cccnc2)[C@H]1C | -9 | 1.21 |
| CC(=O)N(C(C)=O)c1nc(C)cc(-n2nc(-c3ccc(F)cc3)cc2C(F)(F)F)n1 | -5 | 0.65 |
| CCOc1ccc(CNC(=O)C2CN(c3cc(-n4cccn4)ncn3)C2)cn1 | -9 | 1.6 |
| Cc1cc(Br)cc(S(=O)(=O)N(C)C)c1 | -6 | 0.78 |
| O=C(Nc1cccc(OC(F)F)c1)N[C@H]1COC[C@@H]1N1CCCC1 | 7 | -1.4 |
| Cn1cnc2c1CCN(C(=O)c1ccc(CO)cc1)C2 | 2 | -0.29 |
| COC(=O)c1sc(N)nc1C1CCCC1 | -4 | 0.46 |
| CC(=O)N(c1ccc(F)cc1)C1CCCC1 | 0 | -0.02 |
| Cc1ccc(OCc2cccc(C(=O)N3CCC[C@@H]3CN3CCCCC3)c2)cn1 | 39 | -1.15 |
| CCCC(CCC)N1CCC(CO)CC1 | -4 | 0.43 |
| Cc1c(C(c2ccc(-c3ccc(Br)cc3)o2)c2c(C)n(C)n(-c3ccccc3)c2=O)c(=O)n(-c2ccccc2)n1C | -10 | 1.83 |
| O=C(N[C@@H](Cc1ccccc1)c1ccccc1)c1nc(CCc2ccccc2)n(-c2ccccc2)n1 | -2 | 0.33 |
| CCCN(CCC(=O)NCc1ccco1)c1nc(CC)nc2cc(Cl)ccc12 | -2 | 0.18 |
| O=S(=O)(NC[C@@]1(COc2cnccn2)C[C@@H](O)[C@@H](O)C1)c1ccc(Cl)cc1 | 31 | -3.54 |
| CNc1nc(-c2ccccc2)c(-c2ncc(C)c(OC)c2C)s1 | -3 | 0.45 |
| CNC(=O)C1CCC(NC(=O)[C@@H]2CCCN2C(=O)c2ccccc2O)CC1 (stereo partly drawn) | -8 | 1.05 |
| CC(C)CNC(=O)c1cn(C2CCN(C(=O)c3ccccc3)CC2)nn1 | -11 | 1.43 |
| Cn1cc(C2=CCN(C(=O)NC(C)(C)C)CC2)c2cccnc21 | 2 | -0.33 |
| Cc1n[nH]cc1CN[C@@H](C)c1ccc(N2CCN(C)CC2)cc1 | 1 | -0.2 |
| Cc1ccc(CNCc2cccn2C)c(OC[C@H]2CCOC2)c1 | -14 | 1.49 |
| C[C@H](NCC(C)(C)C(N)=O)c1cc(Br)ccc1F | -14 | 1.53 |

| Structure (SMILES) | % Inhibition [%] | Z score |
| --- | --- | --- |
| CCOC1CC1C(=O)N(C)C(C)C(C)S(C)(=O)=O (stereo not drawn) | 3 | -0.62 |
| CN1C[C@@H](Cn2cnc(-c3ccccc3)c2-c2ccsc2)CC1=O | -4 | 0.72 |
| Cc1cc(CNc2ccc(CCO)nc2)c2c(n1)CCCC2 | 0 | 0 |
| COC(=O)c1ccc2c(c1)CCCN2Cc1cccc2cccnc12 | 16 | -2.46 |
| COc1ccc(C)cc1NC(=O)N1CCCN(c2nc3cc(F)ccc3n3cccc23)CC1 | 3 | -0.49 |
| CN(C)c1cccc(-c2nc(-c3ccc4c(c3)nnn4CCC(=O)N3CCOCC3)no2)c1 | -24 | 3.17 |
| O=C(O)C1CC[C@@H](c2ccccc2)N1C(=O)c1cc(C2CC2)no1 (stereo partly drawn) | -4 | 0.84 |
| CN(C(=O)CN1CCCC[C@@H]1Cn1cncn1)c1nccs1 | 0 | 0.02 |
| CN(C[C@H]1CCOC1)C(=O)NCCc1cccc(-c2ccccc2)c1 | 6 | -0.49 |
| Cc1ccc(CN2CCC(N(c3ccc(F)cc3)S(=O)(=O)c3ccccc3)CC2)cc1C | 0 | 0.03 |
| O=C(CC[C@@H]1NC(=O)N(Cc2ccc3c(c2)OCO3)C1=O)Nc1ccccn1 | -16 | 2.01 |
| C[C@H]1Cc2cc(-c3nccn3Cc3nnnn3-c3ccccc3)ccc2O1 | -11 | 1.45 |
| CNC(=O)c1ccn([C@H]2CCCN(C(=O)Cc3coc4ccccc34)C2)n1 | -22 | 2.61 |
| O=C([C@H](Cc1ccccc1)n1cnnn1)N1CCc2ccccc2C1 | -13 | 1.69 |
| CCOc1cc(Cl)ccc1C(=O)N(C)CCC(F)(F)F | -21 | 2.14 |
| NC(=O)[C@@H]1C[C@H](Oc2ccccc2)CN1S(=O)(=O)Cc1ccccc1 | -3 | 0.62 |
| CN(Cc1ccccn1)C(=O)NCCOc1ccc(C#N)cc1 | -28 | 3.34 |
| COc1ccccc1CNC(=O)c1ccc2nnc(C(F)F)n2c1 | -32 | 3.78 |
| COCC(C)(C)NS(=O)(=O)CCOc1ccccc1F | -9 | 1.7 |
| Cc1c(NC(=O)[C@@H]2CCc3cc(F)ccc32)cnn1C | -11 | 1.5 |
| CCOC(=O)c1cc(C(C)(C)C)n(C2CCN(C(=O)COCc3ccccc3)CC2)n1 | 4 | -0.51 |

| Structure (SMILES) | % Inhibition [%] | Z score |
| --- | --- | --- |
| Cc1cnccc1C(=O)N(C)Cc1nc(C(C)C)no1 | -2 | 0.36 |
| CCC(Nc1ccc2nncn2n1)C1CC1(C)C (stereo not drawn) | 8 | -1.39 |
| CCCn1nc(C)cc1CN(C)c1ccc(NC(=O)c2ccccc2F)cc1C(=O)O | -14 | 1.28 |
| C[C@@H](c1ccncn1)N(C)Cc1ccccc1C(=O)O | -9 | 1 |
| Cc1ccc(C(=O)N2CCCN(S(=O)(=O)c3ccccc3)CCC(=O)NCC2)s1 | -23 | 2.65 |
| Cc1ccc(C)c(NS(=O)(=O)c2cc(C(=O)NCc3ccncc3)ccc2C)c1 | -34 | 4.07 |
| COc1cc2ccccc2cc1C(=O)Nc1ccc(S(=O)(=O)Nc2nc(C)cc(C)n2)cc1 | 0 | 0.02 |
| Cc1ccccc1Oc1cc(NC(=O)c2ccccc2F)cc(NC(=O)c2ccccc2F)c1 | -14 | 2.25 |
| Cc1ccc(C(=O)N2CCCNC(=O)[C@@H]2CC(C)C)nn1 | -4 | 0.51 |
| CC(C)(C)n1[nH]c(=O)c2ccc(F)cc21 | -16 | 2.12 |
| Cc1ccc(C)c(-n2ncnc2CN2CC[C@H](N(C)C)C2)c1 | -2 | 0.39 |
| C[C@H]1CCCCN1C1CN(C(=O)NCCc2ncc[nH]2)C1 | -3 | 0.47 |
| COCCNC(=O)C1CC(c2ccccc2)CN(C(=O)Cc2ccccc2)C1 (stereo not drawn) | -2 | 0.34 |
| COc1ccc(C)c2sc(N(Cc3ccccn3)C(=O)CN3C(=O)CCC3=O)nc12 | -11 | 1.42 |
| CC(C)N(CC1CCC1)C(=O)NC1CCC(Oc2cnccn2)CC1 (stereo not drawn) | 29 | -3.26 |
| N[C@H]1CC2(CCC2)Oc2ccc(Br)cc21 | -4 | 0.62 |
| COc1cc(-c2ccnc(N3CCN(S(=O)(=O)c4ccc(F)cc4F)CC3)n2)cc(OC)c1OC | -4 | 0.5 |
| Nc1c(Br)cc2oc(-c3ccc4ccccc4c3)nc2c1Br | 36 | -1.3 |
| CCOCC1(CNC(=O)c2ccccc2Cl)CCC1 | -10 | 1.48 |
| CC(C)COC1CCN(C(=O)CCN2CCOC2=O)CC1 | -3 | 0.48 |
| COc1ccnc(C(=O)N(c2ccc(C)cn2)C2CCCCC2)c1 | -1 | 0.17 |
